Experimental data published in the supplement of paper PMC10126150.
Sequences with one replicate were seen in a single cluster, so their values are uncertain.

Test system: ATP
Assay: switch fluorescence ratio, 500 uM ATP over buffer (Cy3 cluster intensity, sum of 5 cycles each) (fold (ratio)); higher = stronger signal-on switching upon ATP binding; sequences stand for … in TCGTCGGCAGCGTCAGATGTGTATAAGAGACAGTTTTTTTTTTTTTTTTTTTTTTTTT…TC
Settings: aptamer strand: ATP DNA aptamer (quencher-CACCTGGGGGAGTATTGCGGAGGAAGG + anchor), 100 nM annealed; ATP concentration: 500 uM; one replicate
Method in brief: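 Exposure to 500 uM ATP lasted 15 min at 22 °C before imaging, and a selection-buffer image was taken beforehand, for Cy3-labelled switching-strand clusters on a modified Illumina MiSeq flow-cell annealed to 100 nM quencher-labelled ATP aptamer. Five buffer/ATP cycles were run with NaOH stripping and re-annealing between them. The fluorescence ratio per cluster is summed target-cycle over summed buffer-cycle Cy3 intensity, averaged per switch-domain sequence. Clusters outside 100-1000 RFU were excluded.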

Sequence	switch fluorescence ratio
CCCCTCGGCC	1.2
AATGATGACG	1.04
AAATTTAAGA	0.986
ATGTATTGAT	0.964
GGGGTCTGT	0.984
CCAGGGTTAT	1.02
CGGACTCTAG	1.01
CGTAGACGTC	0.983
AATGGCGTAC	1.05
CCGCTTTAGG	1.11
CGTACGGACA	1.18
AAGTTGAGAT	1.01
TCGGCGCCCA	0.991
CTCTTCGATT	0.997
TCGATCATCG	1.01
CGCGATGGCT	1.08
GAGACGCTAG	0.988
GGAGCGCGCC	1.01
TTGTTGAAAG	0.953
AAGATGAATT	0.961
GCATACTAAG	1.07
CAGGTTTACT	0.995
ATGGTCGAAC	0.953

Sequence	switch fluorescence ratio
ACCTCCTTGG	0.968
ATTGTAGGA	0.982
AGGCGTGGCA	1
ATTAAGCGG	1.02
TTCAGGAATT	1.05
TCTAATGGAG	0.968
AGGAGTACAG	0.961
ACTATAGGGC	0.985
TTCTCCCGAT	1.1
CTAGAGAAGG	0.984
GTGAGACCTC	1.02
GCGAAACACG	1.08
CGCGCTGGGG	1.06
CGCATTCCGT	1.03
TTGGGCCTTT	0.979
GAAATATGGG	0.96
CGGCTAACAT	0.971
GCTTAATTGT	1.03
GTCTACGAGG	0.968
GAGCGTCCTT	0.974
CCGACATTCG	1.02
CACTTTTCGC	0.988
GACCCACCCC	1.49

Sequence	switch fluorescence ratio
GACGACTTGC	1.05
TAAAGCAGAT	1.04
TCCAAATTCA	1.06
TGTTACATCT	1.01
TTTGGTCCGT	1.01
GGTTGCAGGT	1.02
GGCACATCTT	0.986
GCAAGTGACA	1.06
CGCTTTTACA	1.05
TGATCGTGCG	0.94
GATTGTTCTA	0.971
TAACTAAGTG	0.938
GAATATGTTT	0.972
ATAGAGTTCC	0.974
CGGCTGCGGC	1.06
GCAGAATGTT	0.999
TGGGTAGACT	1.01
TGGTCAATCT	1.07
GCCACTGACT	1.03
AGAAGAAGAA	1.03
GCTCTCCAGC	1.04
ATGGCAACGT	1
AGTTGGGAT	0.936

Sequence	switch fluorescence ratio
TTAAGCCCTA	1.03
TAGCCGCGTA	1.12
CAATTGGGTC	1.02
GAGCAAGGAG	1.24
ATGGTGTACG	0.982
TCGGTGTGAC	1.01
CGCTATCAC	4.99
AAATCTGACC	1.21
TCTGGTCTTG	1.04
GACTTGATCT	1.01
TTATCGGCA	1
CTATCTGTCG	1.03
GTAGTGACGG	1
GACACGAAG	0.947
ACCGGGGCAT	1.07
TTACGCCCCT	1.24
TCAAGAGAAT	1.03
TGTATCAAGA	1
TCTAATCGTG	0.968
GTGGTAAGTG	0.93
CACAGTTTAA	1.02
GAGTCGTGTT	1
GTAATTCGAA	1.01

Sequence	switch fluorescence ratio
CTGAATCCTT	0.997
ATCCGTCCGT	1.05
ACTACATGCT	1.03
CACCGTCCGG	1.04
TTGTCACCAT	0.984
AAGTCCTTT	0.964
ACAGCGGTTA	0.995
AAGCGTTAAC	1.01
TGCACAGACT	1.1
TTATCAGTAC	1.63
GCAGGACATG	0.995
CGATGGGTTG	0.967
AATTCATTAG	0.99
AGAGCAGAAT	0.982
ACAATGCGAC	2.51
AGGAATGCT	1.06
TCGGAGGGGT	1.05
CTGCTAGGGT	0.934
AGGAAATTAG	0.986
TTAACTGTAC	1.58
TGTGAACTCT	1.02
ATGCGACTTT	1.03
TCCAGAGGGT	1.01

Sequence	switch fluorescence ratio
ATTGGTATTT	0.951
TCTTCACGCT	0.992
GGTGGTAAGG	0.949
AGCTTTTTCT	1.1
GATTCTGTCA	0.991
TGGTGATAAC	1
AGGGTAGTGA	0.982
TGTTTAACGA	1.01
TATTGGGAGC	0.987
GTCATGCATC	0.99
ACTTGACCAT	1.08
TATGCGATTC	1.07
CTAAAAGGAT	1
AGCGTCACTT	1.04
AGCGAGGAAT	0.987
CTGTAACGGA	1.05
CCGTGGTATT	1.16
GGAACCGAGC	1.67
AAGGAGCGG	0.947
GTTTATTCT	0.943
CGGAAACGGG	1.01
CGGGCAGCGC	1.04
GGAACCCGCT	3.22

Sequence	switch fluorescence ratio
CCCCATACCA	1.16
AGGAGGTTAA	0.972
ACACTGGTCA	0.986
TCGTAAACAG	0.989
TGATGAGTTA	1.01
GGATGCATCG	0.968
TTTAATGGAT	1.01
CTCTGTCCAC	1.31
GCGGCTTGGC	0.988
GGATTTCTTC	0.973
TTGATAGCGC	1.1
ATTGTGGTA	0.972
GGGTCAACTT	0.991
TGCTGTGATT	0.954
GAGCCCTGAC	1.03
TACTTAGGGT	1
AACGTGAGT	0.939
GCTTATTGAA	0.987
AATGGGATC	1
